Results published in paper PMC11873243, “Chromatin assembly factor 1 subunit A promotes TLS pathway by recruiting E3 ubiquitin ligase RAD18 in cancer cells” (Cell Death & Disease, 2025).

Target: T1, CHAF1A-His (His-fused full-length CHAF1A) (human)
T1 construct: CHAF1A, human, wild-type cDNA from HEK293T cells in pET32a; also called His-tagged CHAF1A; recombinant CHAF1A; source: E. coli BL21 (DE3), purified (Ni-NTA)
Test: pull-down; His pull-down: Ni-NTA beads coupled to His-fused CHAF1A (full length, N, M or C) incubated with recombinant RAD18-GST in 1x PBS at 4 °C; Coomassie or western blot
Settings: both partners purified

- binding result: binds
B1: RAD18-GST (GST-fused RAD18) (enzyme)
chain: not shown
notes: RAD18, human, full-length cDNA clone from HEK293T cells in pGEX-6P-1; also called GST-tagged RAD18; recombinant RAD18; source: E. coli BL21 (DE3), purified (GST resin)
